In the supplement of paper PMC10126150:
Sequences with one replicate were seen in a single cluster, so their values are uncertain.

Tested on: ATP
Test: switch fluorescence ratio, 500 uM ATP over buffer (Cy3 cluster intensity, sum of 5 cycles each) (fold (ratio)); higher = stronger signal-on switching upon ATP binding; sequences stand for … in TCGTCGGCAGCGTCAGATGTGTATAAGAGACAGTTTTTTTTTTTTTTTTTTTTTTTTT…TC
Settings: aptamer strand: ATP DNA aptamer (quencher-CACCTGGGGGAGTATTGCGGAGGAAGG + anchor), 100 nM annealed; ATP concentration: 500 uM; one replicate
Outline: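 Imaging in selection buffer was followed by imaging after 15 min with 500 uM ATP at 22 °C, for Cy3-labelled switching-strand clusters annealed to 100 nM quencher-labelled ATP aptamer on a modified Illumina MiSeq flow-cell. Five of these buffer/ATP cycles ran, separated by NaOH stripping and re-annealing. The fluorescence ratio per cluster is summed target-cycle over summed buffer-cycle Cy3 intensity, averaged per switch-domain sequence; clusters outside 100-1000 RFU were removed.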
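Note: ATP exposure 15 min at 22 °C before imaging.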

Sequence | switch fluorescence ratio
AATTCGGAAG | 0.992
CAGTCCGGTA | 1.03
GGCGGTGGGC | 1.02
TGATCAGGCA | 0.98
AATCAGGATC | 0.998
AGACCCACCC | 1.54
GCCCATTTAA | 1.04
GAGACATTTA | 1.04
CATTGTACCG | 1.03
AGGGTGGCAG | 0.983
AGTGCTACAC | 1.02
CCGTTATGGA | 0.97
TACATTTC | 1.15
CTTATGGAGG | 0.993
CGTTGGGGTC | 1.02
TGAGTTCTAA | 1.03
CTGCACACAA | 1.39
GCTCGACCCG | 1.02
ACACAATAAC | 1.93
ACATGGAGCG | 1.01
TTGTGGGCT | 0.926
AACCAGCATA | 1.16
ACAACTTAGC | 1.03
ACAGTTCGGC | 1.03
CTTCGAACCA | 1.07
CGTTGTATGT | 0.938

Sequence | switch fluorescence ratio
ACGACCTCGC | 1.48
GGTAGCCATA | 1.03
CTAAGACTAG | 0.953
GTCAGGGCAC | 1.01
TATTGCTACA | 1.03
GATTATATTC | 1.01
TGATGTGCCT | 1.05
ACGGCACTGC | 1.12
CATGGTAAGC | 1
CGTTGATGCG | 1.02
ATTGACTGAA | 1.06
AGCACCTATA | 1.01
CAAGGCGGCG | 1
GGCAGGGACA | 1.03
ATTATCTCA | 1
CGTGCGGCCC | 1.02
GGTGCTGCCG | 0.95
ACTTAGATGC | 1.03
ACCCAGTTTT | 1.09
ACTTGCGCTT | 1
ACGTTAGAAG | 1.09
AAGTGACTCC | 1.25
CGTATCTGGG | 1
CGCCAAGCGG | 1.01
CAATTGCGCG | 0.98
AGCGTGTAAG | 1

Sequence | switch fluorescence ratio
TAATTCCTTA | 0.952
TAAAAGCGTA | 1.03
GACAGTGTCA | 1.01
CCGGGGCGT | 1.03
AACGGTCCCT | 1.03
CAACGAACAA | 1.15
TAATGTGAGC | 1.01
CCTCACATTT | 1.28
CAAATGGATA | 1.01
GGGATATGG | 1.01
TGCCATACCT | 1.14
TTTGGCGTCG | 1.07
GAGATGGAAA | 0.979
CTGTCAATGT | 1.11
GAGCGCCTTG | 0.998
CATATACTGG | 1.08
GGAGGCGCTG | 0.988
CAATAGGGTA | 1.01
GCTCTCAAAC | 1.72
TGAGTATGA | 1.03
TCCTAATTCC | 1.1
TTAAGTGGCA | 0.994
TGCCGGTGG | 0.96
TGGGGGTGAT | 0.987
GAGACGTCTC | 0.956
TTCCTATGCG | 1.11

Sequence | switch fluorescence ratio
TGACCATTTA | 0.988
ATCAGCTAAA | 0.977
CATGGAGGCT | 0.953
AATAAATTAC | 0.992
ACCCAATACC | 3.21
TTAGATGCCG | 0.987
CAGAGTGCGT | 1
TTGAAAGAGG | 0.994
GGGTCCAAGT | 1
AACCGAAATC | 2.11
CATTTCACAG | 0.987
GGTGGCGGGT | 0.99
TTTTGGCACA | 1.01
CAGGGAGTTG | 0.991
ATAGCTCGAA | 1
GATGATGGTA | 1.01
AGTGTGCTGT | 1.02
GTCATGGGAC | 1.02
GCGAACGACG | 1.11
ATTCTGTTGT | 1.01
CCTGTGACGG | 0.994
TTATTCGTAT | 1.41
TCCCGGGGA | 1.01
TTTCCGCTCG | 1.08
CGGCCTCCTT | 1.05
AATTTGTTCA | 1.01

Sequence | switch fluorescence ratio
TTTAGCGAAT | 1.21
TAAATACGAG | 1.06
GAACTATGAT | 1.05
ATTCTCTGGA | 0.957
ACGGGCGA | 0.977
TTACAAAGGG | 0.989
GCAAATACGA | 3.05
CTATCTGGGC | 0.959
CCTGATGGTC | 1.02
AAGGATACTC | 1.12
ATTGGAAATT | 0.963
GACTGTGTGG | 0.963
TTTTACCTGA | 1.08
GTTACTCGTG | 1.02
CTCCCGTCAG | 1.52
TCGAGACAAT | 1.93
TTACTTCGGC | 0.96
TAAGGTTGGA | 1
AATTCTATGC | 1.07
CAATTGACAG | 1.05
AAATGCGCGC | 1.01
CATATTCATC | 0.995
GCCGCTTTGT | 1
GTTTATTCGT | 0.983
TTGGCGGATG | 0.996
GTCGCTAGAG | 0.994

Sequence | switch fluorescence ratio
ATTGAAATAC | 1.52
CACATGCATA | 1.09
AAAAAATTGA | 1.01
TAATATGTT | 0.989
AGAGTGTGCG | 1.06
TAACGGGCGT | 0.969
GTTCAAAGGC | 1.03
TCGGTAACTC | 1.17
ACAAAGTTTT | 1.1
AGATCATGAT | 0.986
AGGGCTGTTT | 0.99
TGAGAGGTCG | 1.05
CGCACGTTAC | 2.79
CGTTATCGA | 0.987
GCTAGAGTTC | 0.967
TATGAAGATT | 1.01
GATTTCGTGG | 1.01
AAAGTACCGA | 1.14
ATACTAGTTA | 1.02
CAGTCCGTT | 1
TTGCCCTGTA | 1.08
CCGCCTCGAT | 3.68
TTGTTGGCTT | 0.946
GGGGAATCTT | 0.991
TTCTCTTGCG | 0.972
TCTCCGGGGG | 1.04

Sequence | switch fluorescence ratio
TTTCATAG | 1
ATTTTGGAG | 1.02
TTACCGATG | 1.05
CCGTACAGGG | 1.12
AATTACATCA | 1.02
CCAAAGCCGG | 1.02
ACCAAGCTAG | 1.05
TGTCAAAATT | 0.996
TCCGCCATTC | 1.95
ATCGGGCTCG | 1.04
CCGGCGATGA | 1.51
GCTTGCTATC | 1.04
CTTGCTACTC | 1.98
GCGCGTGAC | 1.06
GCATGCCTGT | 1.01
ACGGAAGAAT | 1.06
GAGGAAAGG | 0.991
GGACAGACGG | 1.05
GTCCGATTTG | 0.979
TCGCAGTCCA | 1.02
CCCTATGTCC | 1.02
TGTAAATTGC | 1.13
CCCCGGCCAC | 3.85
CACATAATGG | 0.981
TTCTTTATA | 0.983
GTTGAGTA | 0.979

Sequence | switch fluorescence ratio
CACGACCCAT | 1.17
ATGCTTGGTC | 1.04
GTATTCTAGG | 0.998
CATCGTCGGT | 0.959
AATACAGACG | 1.07
ATAGACTGCT | 1.01
TACGATGCCC | 1.06
TATTAGGCTC | 0.992
AACCCACTAG | 1.34
ATTCTATTGA | 0.974
ATATTCCAAG | 0.972
CTGGAGATTT | 1.02
GCCTAGCAAT | 1.31
CGGGCGCTAG | 0.982
AACATACTGG | 1.37
GAGGGCTTTA | 1.01
AGAACCGCAG | 1.34
CGAATTCGTT | 1.02
AAGGCGATGG | 1.06
